From PubChem BioAssay AID1346428 (National Center for Advancing Translational Sciences (NCATS), 2018)
Screen size: about 48,000 compounds; about 1,200 (2.5%) were called active. Not shown: some 2% with an inconclusive outcome.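 The calls were made as follows: active = activation of at least 60% and not above a set upper limit (about 1 call in 100 departs from these limits); inconclusive = activation of 40% to 60%, or above that upper limit; inactive = activation under 40%.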 This is one part of the list.

What follows are molecules tested against Probable G-protein coupled receptor 32 (Homo sapiens) (UniProt O75388) (assay: qHTS for Agonists of Human Resolvin D1 Receptor DRV1). Conditions: CHO-K1 GPR32 beta-arrestin PathHunter luminescence, 90 min; at 76.9 µM; stronger effect = higher value; zero percent set by DMSO-only wells.
Sequence of UniProt O75388 (O75388 whole entry, looked up, the tested form may be a part): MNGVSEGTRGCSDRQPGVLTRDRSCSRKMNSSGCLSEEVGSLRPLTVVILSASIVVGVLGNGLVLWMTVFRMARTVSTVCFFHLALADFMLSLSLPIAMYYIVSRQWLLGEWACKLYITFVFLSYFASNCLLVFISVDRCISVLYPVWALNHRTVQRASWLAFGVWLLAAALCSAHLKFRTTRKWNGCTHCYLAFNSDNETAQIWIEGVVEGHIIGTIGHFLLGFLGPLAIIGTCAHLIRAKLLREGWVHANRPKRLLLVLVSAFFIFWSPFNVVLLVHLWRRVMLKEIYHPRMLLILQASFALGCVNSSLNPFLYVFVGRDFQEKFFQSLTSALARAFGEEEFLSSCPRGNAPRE
Method in brief: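 Agonism was scored by beta-Gal fragment complementation (chemiluminescent read, 1 h detection at ambient temperature) reporting beta-arrestin binding to GPR32 in engineered CHO-K1 cells. Compound treatment lasted 90 min at 37 C, normalized to a DMSO basal control.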
Also: 0% is about no effect.

Row | Structure (SMILES) | activation
1 | Cc1ccc(Cl)cc1N1CCN(c2nc3ccc(C(=O)c4ccccc4)cc3n3cnnc23)CC1 | inactive: -2.77%
2 | Cc1ccc(C)c(N2CCN(C(=O)C3CCC(CNS(=O)(=O)c4cccs4)CC3)CC2)c1 (stereo not given) | inactive: 0.939%
3 | CCC1CN(C(=O)N2CCC(C(=O)NCCc3ccc(OC)c(OC)c3)CC2)c2ccccc2O1 (stereo not given) | inactive: -9.6%
4 | CCOC(=O)N1CCc2c(sc3c2c(=O)n(-c2ccc(CC)cc2)c(=O)n3Cc2cccc(Cl)c2)C1 | inactive: -13.8%
5 | Cc1ccc(CNC(=O)CSc2c(C)cnc3c2c(=O)n(C)c(=O)n3C)cc1 | inactive: 19%
6 | CC1CCN(S(=O)(=O)c2ccc3nc(NCc4ccc(N(C)C)cc4)ccc3c2)CC1 | inactive: -17.6%
7 | Cc1ccc(C)c(N2CCN(C(=O)c3cc4cc5ccc(C)cc5nc4o3)CC2)c1 | inactive: 9.24%
8 | Cc1ccc(NC(=O)CN2C(=O)C(c3ccc(F)cc3)=NC23CCCCCC3)c(C)c1 | inactive: -25%
9 | CCCCOc1ccc(C2C(=O)N(C3CCCCC3)CC(=O)N2C2CCCCC2)cc1 (stereo not given) | inactive: -1.21%
10 | CCn1cc(C(=O)OCC(=O)Nc2cc(Cl)ccc2C)c(=O)c2ccc(C)nc21 | inactive: 0.0218%
11 | C=CCc1cc(OC)c(O)c(C(=O)NCCO)c1 | inactive: 7.08%
12 | CCc1cccc(NC(=O)Cn2c(=O)n(CCCCCC(=O)NCc3ccc(F)cc3)c(=O)c3sccc32)c1 | inactive: 10.2%
13 | Cc1cccc(NC(=O)Nc2cccs2)c1C | inactive: -19.3%
14 | CO[C@@]1(NC(=O)C(C(=O)O)c2ccc(O)cc2)C(=O)N2C(C(=O)O)=C(CSc3nnnn3C)CO[C@@H]21 (stereo not given in full) | active: 63%
15 | CCOC(=O)c1ccccc1NC(=O)CN(c1ccccc1)S(=O)(=O)c1ccc(OCC)cc1 | inactive: 3.67%
16 | COc1ccc(C2C=C(c3ccccc3)Nc3nc(NC(C)=O)nn32)cc1 (stereo not given) | inactive: 15%
17 | CCn1nc(C)c2c(-c3ccccc3)cc(=O)n(C(C)C(=O)Nc3ccc(OC)c(OC)c3)c21 (stereo not given) | inactive: -12.3%
18 | Cc1ccc(C)c(NC(=O)Cn2ncc3c(C)n(Cc4ccc(F)cc4)c(C)c3c2=O)c1 | inactive: -8.72%
19 | CCCCCCc1c(C)c2c(cc(C)c3c(C)coc32)oc1=O | inactive: 4.28%
20 | Cc1cc(C)cc(NC(=O)Cn2nnc(-c3ccccc3F)n2)c1 | inactive: 14.2%
21 | CC1=C(c2ccc(C)c(C)c2)S(=O)(=O)N(Cc2ccc(C(=O)NCc3ccccc3F)cc2)C1=O | inactive: -0.87%
22 | N#C/C(=C\c1ccc(O)cc1)C(=O)NCC1CCCO1 (stereo not given) | inactive: -39.5%
23 | COc1ccc(-c2cc(C(F)(F)F)n3nc(C)c(-c4ccccc4)c3n2)cc1OC | inactive: 1.52%
24 | O=C(CCc1cn(Cc2ccc(F)cc2)c2ccccc12)NC1CCCCC1 | inactive: -9.48%
25 | Nc1cc(C(F)(F)F)ccc1S | inactive: 30.5%
26 | COc1ccc(OC)c(CNC(=O)CCCn2c(=O)c3cccn3c3cccnc32)c1 | inactive: -5.2%
27 | CCOc1ccccc1NC(=O)Cn1c(=O)n(Cc2ccc(OC)cc2)c(=O)c2oc3ccccc3c21 | inactive: -3.58%
28 | O=C(Nc1ccccc1F)c1cnc(N2CCCCC2)c2ccccc12 | inactive: -16%

Row | Structure (SMILES) | activation
29 | Cc1oc(-c2ccccc2F)nc1Cn1c(SCc2cccc(C(F)(F)F)c2)nc2ccncc21 | inactive: 12%
30 | O=C1CC[C@@H](C(=O)O)N1 | inactive: 0.226%
31 | CCc1ccccc1NC(=O)c1cc(-c2ccc(Cl)s2)nc2ccccc12 | inactive: 4.83%
32 | Cc1cc2c(cc1S(=O)(=O)Nc1ccc(C(C)C)cc1)OCCN2C | inactive: -9.61%
33 | COc1cc2c(CCNC(C)=O)c[nH]c2cc1O | inactive: 9.53%
34 | COc1ccc(N(CC(=O)Nc2cc(OC)cc(OC)c2)S(=O)(=O)c2c(C)noc2C)cc1 | inactive: -3.09%
35 | COc1ccccc1-c1nnc(C2CCN(C(=O)c3ccccc3C)CC2)o1 | inactive: 17.2%
36 | COc1ccccc1NC(=O)c1cc2c(=O)n(Cc3cccs3)ccc2nc1C | inactive: -10.8%
37 | Cc1cccc(-n2cnc3cc(C(=O)NCc4ccccc4Cl)ccc32)c1 | inactive: -11.1%
38 | Cc1ccc(O)c(NC(=O)CCS(=O)(=O)c2nc(-c3cccs3)cc(C(F)(F)F)n2)c1 | inactive: -28.7%
39 | Cc1cccc(-n2c(C)cc(C(=O)C(=O)Nc3nncs3)c2C)c1 | inactive: 8.84%
40 | COc1ccc(CCNc2ncnc3c2c(-c2ccccc2)cn3-c2ccc(Cl)cc2)cc1OC | inactive: -38.6%
41 | COC(=O)c1ccc(NC(=O)C2CCN(c3ncnc4c3nc3n4CCCCC3)CC2)cc1 | inactive: -11.2%
42 | COc1cc(CN(C(=O)c2ccc(OC(C)C)cc2)c2ccccn2)cc(OC)c1OC | inactive: 32.5%
43 | COc1cccc(-c2nc(CS(=O)(=O)CC(=O)Nc3cccc(C(C)=O)c3)c(C)o2)c1 | inactive: -22.3%
44 | Cc1cc(C)cc(Nc2cc(C(=O)NC3CCCCC3)c3ccccc3n2)c1 | inactive: 5.58%
45 | Cc1cc(C)cc(NC(=O)CSc2c(C(C)C)cnc3c2c(=O)n(C)c(=O)n3C)c1 | inactive: -6.03%
46 | Cc1cc(Nc2nc3ccccc3c3nnc(C)n23)ccc1Br | inactive: 23.3%
47 | Fc1ccc(-c2cc3ncc4c(n3n2)-c2cc(Cl)ccc2OC4)cc1 | inactive: -0.351%
48 | O=C(O)CNC(=O)c1ccccc1 | inactive: 9.99%
49 | CCOC(=O)c1cc(C)n(CC2CCC(C(=O)Nc3ccc(OC)cc3)CC2)c1C (stereo not given) | inactive: -13.6%
50 | CCCCc1ccc(C(=O)Nc2ccc3nc(N4CCN(CC)CC4)cc(C)c3c2)cc1 | inactive: -11.3%
51 | CCOC(=O)c1ccccc1NC(=O)CSc1nnc(CC)n2c1cc1occc12 | inactive: -10.4%
52 | COc1ccc(C)cc1NC(=O)c1cc(S(=O)(=O)N2CCC(C)CC2)ccc1F | inactive: -17.6%
53 | CC1=C(C(=O)NCc2cccc(F)c2)C2(CCCCCC2)OC1=O | inactive: -20%
54 | Cc1ccc(-n2ncc(C(=O)Nc3ccc4c(c3)OCCO4)c2C2CCN(C(=O)OC(C)(C)C)CC2)cc1C | inactive: -10.1%
55 | COc1ccc(CNC(=O)c2cc(-c3ccc(Br)s3)nc3ccccc23)c(OC)c1 | inactive: -7.48%
